Several values for one entry are separate records, joined by “and”; a condition that tells them apart may be missing. Equal values may be shown once. Among all 48,000 compounds or so, about 1,200 (2.5%) were called active. Not shown: some 2% with an inconclusive outcome.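 How the source made its calls: active means activation of at least 60% and not above a set upper limit (about 1 call in 100 departs from these limits); inconclusive means activation of 40% to 60%, or above that upper limit; inactive means activation under 40%.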 This is one part of the list.

The test deals with Probable G-protein coupled receptor 32 (Homo sapiens) (UniProt O75388). As to the kind of experiment: qHTS for Agonists of Human Resolvin D1 Receptor DRV1. Further: 0% is about no effect. The following applies: CHO-K1 GPR32 beta-arrestin PathHunter luminescence, 90 min; at 76.9 µM; stronger effect = higher value; zero percent set by DMSO-only wells. The procedure, abridged: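 Readings come from a cell-based beta-arrestin complementation format: CHO-K1 GPR32 stable cells (2,500/well) treated 90 min with compounds, then beta-Gal substrate added for 1 h before chemiluminescence imaging.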
Chain of UniProt O75388 (O75388 whole entry, looked up): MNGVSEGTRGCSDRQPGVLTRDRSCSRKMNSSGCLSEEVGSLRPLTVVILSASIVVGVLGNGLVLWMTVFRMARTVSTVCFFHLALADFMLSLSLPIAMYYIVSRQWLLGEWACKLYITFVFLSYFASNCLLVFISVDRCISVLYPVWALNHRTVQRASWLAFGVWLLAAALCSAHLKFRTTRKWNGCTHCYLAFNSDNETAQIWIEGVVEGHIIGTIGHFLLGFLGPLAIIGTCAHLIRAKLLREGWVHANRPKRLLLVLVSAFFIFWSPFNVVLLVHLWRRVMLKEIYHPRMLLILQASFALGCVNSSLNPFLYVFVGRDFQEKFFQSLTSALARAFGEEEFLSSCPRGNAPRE
For `COCCNC(=O)CN1C(=O)CCn2nc(-c3cn(C)c4ccccc34)cc21`, the activation was inactive: 0.377%.
Turning to `COc1ccc(-c2nc3n(n2)C(c2ccccc2)C(C(=O)Nc2cccnc2)=C(C)N3)cc1` (configuration not stated), the activation is inactive: -10.7%.
For `CCOC(=O)N1CCN(CCC(=O)Nc2cccc(F)c2)CC1` the value was inactive: 7.25%; for `CN1CCN(CC(=O)N2c3ccccc3C(=O)Nc3cccnc32)CC1`, inactive: -13.5% and inactive: -1.39%; for `Cc1c(C(=O)NCc2ccc(Cl)cc2)sc2nc3n(c(=O)c12)CCC3`, inactive: -9.3%.
Under `Cc1ccc(NC(=O)CC(c2ccc(F)cc2)N2Cc3ccccc3C2=O)cc1C` (configuration not stated) stands inactive: -3.07%; under `Cc1c(C(=O)O)oc2c1-c1nn(Cc3ccccc3Cl)cc1CC2`, inactive: -19.5%.
Take `COc1cc([C@@H]2Nc3c(F)cccc3[C@@H]3C=CC[C@@H]32)cc(Br)c1OC`: the activation is inactive: -11.8%.
Consider `CC(=O)N(CC(O)CO)c1c(I)c(C(=O)NCCO)c(I)c(C(=O)NCC(O)CO)c1I` (configuration not stated), for which the activation is inactive: 1.62%.
For `CCc1ccccc1NC(=O)c1ccc(F)c(S(=O)(=O)N2CCN(c3ccccc3OC)CC2)c1`, the activation is inactive: -10.4%.
For the molecule `COc1ccc2c(Sc3ccc(C)cc3)c(C(=O)NC(C)c3ccccc3)[nH]c2c1` (configuration not stated), the activation was inactive: -7.44%.
For the molecule `CCc1ccc(C(=O)c2cn(CC(=O)NCc3ccc(C)cc3)c3nc(C)ccc3c2=O)cc1`, the activation was inactive: 28.5%.
Under `Cc1ccc(Sc2ccc(N3CCC(C(=O)Nc4ccc(Cl)cc4)CC3)nn2)cc1` stands inactive: 34%.
For `Cc1ccc(N2C(=O)C(CC(=O)Nc3ccc(F)cc3)N(Cc3ccc4c(c3)OCO4)C2=O)cc1` (configuration not stated) the value was inactive: -0.0487%.
Under `Cc1ccc(CNC(=O)c2ccc3c(c2)NC(=O)C(CS(=O)(=O)Cc2cccc(F)c2)N3)cc1` (configuration not stated) stands inactive: 3.29%.
Regarding `CC(=O)c1ccc(NC(=O)c2cc3c(=O)oc4ccc(C)cc4c3s2)cc1`, the activation was inactive: -5.72%.
On to `Cc1ccc(CNC(=O)Cn2c(-c3cccs3)cc3cc(Cl)ccc32)cc1`, for which the activation was inactive: -7.26%.
Turning to `O=C(Nc1nc2c(F)cccc2s1)c1ccc2c(c1)OCCO2`, the activation was inactive: 38.8%.
On to `CCOC(=O)CCNC(=O)N1CCN(S(=O)(=O)c2ccc3c(ccn3C)c2)CC1`, for which the activation is inactive: -1.25%.
For `CCc1nn(CC(=O)NCCCc2ccccc2)c(=O)c2cc3cc(F)ccc3n12` the value was inactive: -8.84%.
Regarding `O=C(CSCn1nnc2c(=O)[nH]c(Cc3ccc(F)cc3)nc21)Nc1ccccc1`, the activation was inactive: 0.395%.
In the case of `O=S(=O)(c1ccc(Cl)cc1)c1nc(-c2ccccc2F)oc1NCc1ccccc1`, the activation was inactive: 2.86%.
Take `COc1ccc(NC(=O)C2=CC(c3ccc4c(c3)OCO4)=NS(=O)(=O)N2C)cc1OC`: the activation is inactive: -6.29%.
With `Cc1cccc(N2C(=O)C(CC(=O)Nc3cccc(F)c3)N(CCc3ccncc3)C2=O)c1` (configuration not stated), the activation is inactive: 15.2%.
Regarding `CCC(Sc1nc2ncccc2[nH]1)C(=O)Nc1ccccc1F` (configuration not stated), the activation is inactive: -13%.
As for `COc1ccc2c(CNCc3cccs3)c(C(=O)O)n(Cc3ccccc3C)c2c1`, the activation is inactive: -4.87%.
In the case of `COc1cc(OC)c(N(C)C(=O)c2cc3c(s2)-c2ccccc2OC3)cc1Cl`, the activation was inactive: -17.1%.
For `O=C(OCC1CCCO1)c1ccc2c(c1)N(Cc1ccc(F)cc1)C(=O)c1ccccc1S2(=O)=O` (configuration not stated), the activation was inactive: -41.7%.
For `CCC(=O)NCc1nc2ccccc2n1Cc1ccccc1` the value was inactive: -22.3%; for `Cc1ccc(Cl)cc1NC(=O)N1CCC(CN2CCc3ccccc3C2)CC1`, inactive: -19.4%.
On to `Cc1ccc(S(=O)(=O)N2CCCc3cc(NC(=O)c4cccc(Cl)c4)ccc32)cc1`, for which the activation was inactive: -11.7%.
Under `CCOc1cc(CNc2ccc(O)cc2)cc(Cl)c1OCc1ccccc1` stands inactive: -12.5%; under `CCCCOc1ccc(C(=O)Nc2ccc3c(c2)N(C(C)=O)CCC3)cc1`, inactive: -19.2%.
For the molecule `Cn1cccc1-c1cc2n(n1)CCC(=O)N2CC(=O)Nc1ccc(F)cc1Cl`, the activation was inactive: -3.45%.
Consider `COCCCNc1nc2c(-c3cccc(Br)c3)nnn2c2ccccc12`, for which the activation is inactive: -8.27%.
Under `COC(=O)c1ccc2c(=O)n(CCCCCC(=O)N3CCN(c4cccc(C)c4C)CC3)c(=O)[nH]c2c1` stands inactive: -29.8%; under `CCOC(=O)c1c(C)[nH]c(C)c1S(=O)(=O)N1CCC(C(=O)NCc2ccc(OC)cc2)CC1`, inactive: -1.05%.
Regarding `Cc1c(NC(=O)Cc2ccccc2)cccc1-c1nc2cccnc2s1`, the activation was inactive: -7.64%.
For `Cn1nc(-c2ccccc2F)c2cc(C(=O)N3CCN(c4ccccc4F)CC3)sc21` the value was inactive: 10.4%.
For `CCOc1ccc(NC(=O)c2cc3nc(-c4ccc(OC)cc4)cc(C(F)(F)F)n3n2)cc1` the value was inactive: -3.91%.
As to `O=C(CSc1nc2c([nH]c3ccccc32)c(=O)n1-c1ccc(F)cc1)Nc1ccc2c(c1)OCCO2`, the activation is inactive: -22.1%.
Under `CCS(=O)(=O)N1CCc2cc(C(=O)NCc3ccc(C)cc3)ccc21` stands inactive: -3.59%.
Under `CCC(Cn1nnc2ccccc2c1=O)NC(=O)Nc1ccccc1Cl` (configuration not stated) stands inactive: 22.9%; under `Cc1cccc(-c2cc(-c3ccccc3)nc(SCC(=O)Nc3ccccc3)c2C#N)c1`, inactive: -5.79%.
For `Cc1ccccc1OCC(=O)Nc1ccc2nc(SCC(=O)N3CCOCC3)sc2c1` the value was inactive: 27.1%; for `O=C(CN1C(=O)C2(SCC(=O)N2c2ccc(F)c(F)c2)c2ccccc21)Nc1cccc(Cl)c1` (configuration not stated), inactive: 26.9%; for `CCOc1ccc(NC(=O)CCNS(=O)(=O)c2cccs2)cc1`, inactive: -0.0091%.
Take `Cc1ccc(-c2nn(CCC(N)=O)c(=O)c3ccccc23)cc1`: the activation was inactive: -1.7%.
Consider `COc1ccc2c(C)c(CCC(=O)NCc3ccccc3Cl)c(=O)oc2c1C`, for which the activation was inactive: 9.2%.
`COc1c(C)cc(NS(=O)(=O)c2ccc3c(c2)OCCO3)cc1C`: the activation is inactive: 28.2%.
Turning to `COc1ccc(CNC(=O)C2CCN(C(=O)N3CCOc4ccc(Cl)cc43)CC2)cc1`, the activation is inactive: -12.3%.
For `Cc1cc(Nc2ccccc2O)nc(C)n1` the value was inactive: -2.14%.
For `COc1ccc(NC(=O)CCCN2C(=O)CCn3nc(-c4cn(C)c5ccccc45)cc32)cc1` the value was inactive: 1.27%.
As to `Cc1ccc(C)c(S(=O)(=O)n2nc(C)c(S(=O)(=O)N3CCCCCC3)c2C)c1`, the activation is inactive: -9.05%.
Regarding `Cc1cccc(C)c1-n1ncc(C(=O)NCCN2CCN(C)CC2)c1C1CCN(C(=O)OC(C)(C)C)CC1`, the activation is inactive: -5.2%.
For `CCOC(=O)c1cnc2ccc(OC)cc2c1Nc1cccc(C(C)=O)c1` the value was inactive: 11.7%; for `CCOc1ccc(C(=O)NCc2nc(-c3ccc(Cl)cc3)no2)cc1OCC`, inactive: 2.01%.
Under `Cc1cccc(NC(=O)C2CCN(S(=O)(=O)c3c(C)noc3/C=C/c3ccco3)CC2)c1` stands inactive: -32.5%; under `CCN(Cc1ccccc1)S(=O)(=O)c1ccc(F)c(C(=O)Nc2cc(C)ccc2OC)c1`, inactive: -0.681%; under `Cc1cc(N2CCN(c3cc(Cl)ccc3C)CC2)n2nc(-c3ccccc3)nc2n1`, inactive: 10.5%.
For the molecule `Cc1cc(F)ccc1S(=O)(=O)Nc1cc2c(C(=O)O)c(C)oc2c2ccccc12`, the activation was inactive: 6.09%.
Consider `COC(=O)c1cc2sccc2n1Cc1ccc(F)cc1Cl`, for which the activation was inactive: -13.5%.
Under `CCOC(=O)c1c(C)oc2ccc(N(C(C)=O)S(=O)(=O)c3c(C)cc(C)cc3C)cc12` stands inactive: 3.85%.
Under `COc1ccc(OC)c(CC2C(=O)Nc3ccc(Br)cc32)c1` (configuration not stated) stands inactive: -19.1%; under `O=C(COc1ccc(F)cc1)Nc1ccc2nc(SCCOc3ccccc3)sc2c1`, inactive: 26.4%.
Under `N#Cc1ccc(NC(=O)C2Cc3ccccc3CN2S(=O)(=O)c2ccc(F)cc2)cc1` (configuration not stated) stands inactive: -13.2%; under `CCCCNC(=O)C1CCC(Cn2c(=O)c3sccc3n(CC(=O)Nc3ccccc3)c2=O)CC1` (configuration not stated), inactive: -3.89%; under `O=C(Nc1ccccc1C(=O)OCc1cc(=O)n2ccsc2n1)c1ccccc1Cl`, inactive: 3.56%.
For `COCCn1c(=N)c(C(=O)NC2CCCC2)cc2c(=O)n3cc(C)ccc3nc21`, the activation was inactive: -5.27%.
Under `CC(=O)N(CC(O)CO)c1c(I)c(C(=O)NCC(O)CO)c(I)c(C(=O)NCC(O)CO)c1I` (configuration not stated) stands inactive: -16.9%; under `COc1ccc(Oc2nc3c(c(=O)n(C)c(=O)n3C)n2Cc2ccc(Cl)cc2Cl)cc1`, inactive: -2.62%; under `O=C(NC1CCN(Cc2ccccc2)CC1)c1ccc(Cn2c(=O)c3ccccc3n(Cc3cccc(F)c3)c2=O)cc1`, inactive: -3.75%.
`CCN(CC)CCNC(=O)c1cn(CC)c2ccc(S(=O)(=O)N3CCc4ccccc4C3)cc2c1=O`: the activation was inactive: 2.71%.
For `CCC(=O)N1CCc2cc(Br)cc(S(=O)(=O)N3CCN(c4cc(C)ccc4C)CC3)c21` the value was inactive: -3.6%; for `COc1cc(-c2cc3n(C)c(C)c(CCC(=O)NC4CCCCC4)c(=O)n3n2)cc(OC)c1OC`, inactive: -8.92%.
For the molecule `Cc1cccc(C)c1NC(=O)CCC(=O)N1Cc2ccccc2Oc2ncccc21`, the activation was inactive: -7.2%.
Consider `CCC(=O)N1CCc2cc(Br)cc(S(=O)(=O)CCC(=O)Nc3ccc(Cl)cc3)c21`, for which the activation is inactive: -10.4%.
For `CCOC(=O)c1cc(-c2ccc(C)cc2)n(CCC(=O)NCCc2ccc(C)cc2)c1C`, the activation was inactive: 15.8%.
Under `O=C(Cc1ccc(NC(=O)N2CCSc3ncccc32)cc1)NCc1cccc(Cl)c1` stands inactive: -4.44%.
`O=C(Nc1cccc(OCc2cc(=O)n3ccccc3n2)c1)Nc1cccc(C(F)(F)F)c1`: the activation was inactive: -5.36%.
For `Cc1ccc(NC(=O)C2CCCN2S(=O)(=O)c2cccc3cccnc23)c(C)c1` (configuration not stated), the activation is inactive: -9.17%.
For `Cc1cccc(C(=O)NCc2nc3ccccc3n2Cc2ccccc2Cl)c1`, the activation is inactive: 0.954%.

Source of the values: PubChem BioAssay AID1346428 (National Center for Advancing Translational Sciences (NCATS), 2018).
